Data published in US20210130437A1 (ALPINE IMMUNE SCIENCES, published 2021).

T1: human TIGIT expressed on cells (Jurkat/TIGIT cells) (human, UniProt Q495A1 22-244)
T1 sequence: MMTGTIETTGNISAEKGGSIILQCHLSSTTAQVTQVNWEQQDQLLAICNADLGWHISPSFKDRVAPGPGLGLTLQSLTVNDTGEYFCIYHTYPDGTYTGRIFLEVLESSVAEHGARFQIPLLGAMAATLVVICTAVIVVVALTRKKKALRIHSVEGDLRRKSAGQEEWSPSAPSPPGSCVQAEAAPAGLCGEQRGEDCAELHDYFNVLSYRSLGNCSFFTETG

B1: PD-L2/CD155 Stack 13 (Fc fusion)
chain 1: WPPPGTGDVVVQAPTQVSGFLGDSVTLPCYLQVPNMEVTHVSQLTWARHGESGSMAVFHQTQGPWYAESKRLEFVAARLGAELRNASLRMFGLRVEDEGNYTCQFVTFPQRSRSVDIWLRVLGGGGSGGGGSGGGGSWPPPGTGDVVVQAPTQVSGFLGDSVTLPCYLQVPNMEVTHVSQLTWARHGESGSMAVFHQTQGPWYAESKRLEFVAARLGAELRNASLRMFGLRVEDEGNYTCQFVTFPQRSRSVDIWLRVLGGGGSGGGGSEPKSSDKTHTCPPCPAPEAEGAPSVFLFPPKPKDTLMISRTPEVTCVVVDVSHEDPEVKFNWYVDGVEVHNAKTKPREEQYNSTYRVVSVLTVLHQDWLNGKEYKCKVSNKALPAPIEKTISKAKGQPREPQVYTLPPCREEMTKNQVSLWCLVKGFYPSDIAVEWESNGQPENNYKTTPPVLDSDGSFFLYSKLTVDKSRWQQGNVFSCSVMHEALHNHYTQKSLSLSPGKGGGGSGGGGSGGGGSLFTVTVPKELYIIEQGSNVTLECNFDTGSHVNLGAITASLQKVENDASPHRERATLLEEQLPLGRALFHIPQVQVRDEGQYRCIIIYGDAWDYKYLTLKVKAGGGGSGGGGSGGGGSLFTVTVPKELYIIEQGSNVTLECNFDTGSHVNLGAITASLQKVENDASPHRERATLLEEQLPLGRALFHIPQVQVRDEGQYRCIIIYGDAWDYKYLTLKVKA
chain 2: HMSSVSAQ[human IgG1 Fc with changes not given here]GGGGSGGGGSGGGGSLFTVTVPKELYIIEQGSNVTLECNFDTGSHVNLGAITASLQKVENDASPHRERATLLEEQLPLGRALFHIPQVQVRDEGQYRCIIIYGDAWDYKYLTLKVKAGGGGSGGGGSGGGGSLFTVTVPKELYIIEQGSNVTLECNFDTGSHVNLGAITASLQKVENDASPHRERATLLEEQLPLGRALFHIPQVQVRDEGQYRCIIIYGDAWDYKYLTLKVKA
notes: Heterodimer
B2: PD-L2/CD155 Stack 16 (Fc fusion)
chain 1: LFTVTVPKELYIIEQGSNVTLECNFDTGSHVNLGAITASLQKVENDASPHRERATLLEEQLPLGRALFHIPQVQVRDEGQYRCIIIYGDAWDYKYLTLKVKAGGGGSGGGGSGGGGSLFTVTVPKELYIIEQGSNVTLECNFDTGSHVNLGAITASLQKVENDASPHRERATLLEEQLPLGRALFHIPQVQVRDEGQYRCIIIYGDAWDYKYLTLKVKAGGGGSGGGGSEPKSSDKTHTCPPCPAPEAEGAPSVFLFPPKPKDTLMISRTPEVTCVVVDVSHEDPEVKFNWYVDGVEVHNAKTKPREEQYNSTYRVVSVLTVLHQDWLNGKEYKCKVSNKALPAPIEKTISKAKGQPREPQVYTLPPCREEMTKNQVSLWCLVKGFYPSDIAVEWESNGQPENNYKTTPPVLDSDGSFFLYSKLTVDKSRWQQGNVFSCSVMHEALHNHYTQKSLSLSPGKGGGGSGGGGSGGGGSWPPPGTGDVVVQAPTQVSGFLGDSVTLPCYLQVPNMEVTHVSQLTWARHGESGSMAVFHQTQGPWYAESKRLEFVAARLGAELRNASLRMFGLRVEDEGNYTCQFVTFPQRSRSVDIWLRVLGGGGSGGGGSGGGGSWPPPGTGDVVVQAPTQVSGFLGDSVTLPCYLQVPNMEVTHVSQLTWARHGESGSMAVFHQTQGPWYAESKRLEFVAARLGAELRNASLRMFGLRVEDEGNYTCQFVTFPQRSRSVDIWLRVL
chain 2: HMSSVSAQ[human IgG1 Fc with changes not given here]GGGGSGGGGSGGGGSLFTVTVPKELYIIEQGSNVTLECNFDTGSHVNLGAITASLQKVENDASPHRERATLLEEQLPLGRALFHIPQVQVRDEGQYRCIIIYGDAWDYKYLTLKVKAGGGGSGGGGSGGGGSLFTVTVPKELYIIEQGSNVTLECNFDTGSHVNLGAITASLQKVENDASPHRERATLLEEQLPLGRALFHIPQVQVRDEGQYRCIIIYGDAWDYKYLTLKVKA
notes: Heterodimer; also called 1200 + 1204
B3: PD-L2/CD155 Stack 11 (Fc fusion)
chain 1: WPPPGTGDVVVQAPTQVSGFLGDSVTLPCYLQVPNMEVTHVSQLTWARHGESGSMAVFHQTQGPWYAESKRLEFVAARLGAELRNASLRMFGLRVEDEGNYTCQFVTFPQRSRSVDIWLRVLGGGGSGGGGSGGGGSWPPPGTGDVVVQAPTQVSGFLGDSVTLPCYLQVPNMEVTHVSQLTWARHGESGSMAVFHQTQGPWYAESKRLEFVAARLGAELRNASLRMFGLRVEDEGNYTCQFVTFPQRSRSVDIWLRVLGGGGSGGGGSEPKSSDKTHTCPPCPAPEAEGAPSVFLFPPKPKDTLMISRTPEVTCVVVDVSHEDPEVKFNWYVDGVEVHNAKTKPREEQYNSTYRVVSVLTVLHQDWLNGKEYKCKVSNKALPAPIEKTISKAKGQPREPQVYTLPPCREEMTKNQVSLWCLVKGFYPSDIAVEWESNGQPENNYKTTPPVLDSDGSFFLYSKLTVDKSRWQQGNVFSCSVMHEALHNHYTQKSLSLSPGK
chain 2: LFTVTVPKELYIIEQGSNVTLECNFDTGSHVNLGAITASLQKVENDASPHRERATLLEEQLPLGRALFHIPQVQVRDEGQYRCIIIYGDAWDYKYLTLKVKAGGGGSGGGGSGGGGSLFTVTVPKELYIIEQGSNVTLECNFDTGSHVNLGAITASLQKVENDASPHRERATLLEEQLPLGRALFHIPQVQVRDEGQYRCIIIYGDAWDYKYLTLKVKAGGGGSGGGGS[human IgG1 Fc with changes not given here]
notes: Heterodimer; also called (CD155 IgV) (G4S)3 (CD155 IgV) (G4S)2 knob Fc and (PD-L2 IgV) (G4S)3 (PD-L2 IgV) (G4S)2 hole Fc; 1201 + 1202
B4: PD-L2/CD155 Stack 14 (Fc fusion)
chain 1: B1 chain 1
chain 2: LFTVTVPKELYIIEQGSNVTLECNFDTGSHVNLGAITASLQKVENDASPHRERATLLEEQLPLGRALFHIPQVQVRDEGQYRCIIIYGDAWDYKYLTLKVKAGGGGSGGGGSGGGGSLFTVTVPKELYIIEQGSNVTLECNFDTGSHVNLGAITASLQKVENDASPHRERATLLEEQLPLGRALFHIPQVQVRDEGQYRCIIIYGDAWDYKYLTLKVKAGGGGSGGGGS[human IgG1 Fc with changes not given here]
notes: Heterodimer
B5: PD-L2/CD155 Stack 15 (Fc fusion)
chain 1: B2 chain 1
chain 2: LFTVTVPKELYIIEQGSNVTLECNFDTGSHVNLGAITASLQKVENDASPHRERATLLEEQLPLGRALFHIPQVQVRDEGQYRCIIIYGDAWDYKYLTLKVKAGGGGSGGGGSGGGGSLFTVTVPKELYIIEQGSNVTLECNFDTGSHVNLGAITASLQKVENDASPHRERATLLEEQLPLGRALFHIPQVQVRDEGQYRCIIIYGDAWDYKYLTLKVKAGGGGSGGGGS[human IgG1 Fc with changes not given here]
notes: Heterodimer; also called 1200 + 1202

molecular target: T2, human PD-1 expressed on cells (Jurkat/PD-1 cells) (human, UniProt Q15116 21-288); experiment: flow cytometry, Jurkat/PD-1 cells
T2 construct: also called PDCD1
T2 sequence (Q15116 21-288): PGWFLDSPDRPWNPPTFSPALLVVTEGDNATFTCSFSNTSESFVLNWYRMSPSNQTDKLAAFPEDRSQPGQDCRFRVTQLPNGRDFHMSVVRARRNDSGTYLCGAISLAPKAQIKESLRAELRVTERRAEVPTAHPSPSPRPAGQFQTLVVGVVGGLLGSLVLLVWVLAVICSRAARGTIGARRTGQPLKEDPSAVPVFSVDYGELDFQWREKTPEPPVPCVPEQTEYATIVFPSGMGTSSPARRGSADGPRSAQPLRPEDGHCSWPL

MFI at 6.25 nM	Binder
515 MFI	B1
3780 MFI	B2
1760 MFI	B3
4820 MFI	B4
11000 MFI	B5

molecular target: T1, human TIGIT expressed on cells …; experiment: flow cytometry, Jurkat/TIGIT cells

MFI at 6.25 nM	Binder
8300 MFI	B1
1480 MFI	B2
9640 MFI	B3
7600 MFI	B4
3340 MFI	B5
